# “And” between values parts separate entries of the source, which are not always exact repeats. Equal entries are not always repeated. The inconclusive results got no clear call from the source; some entries with a clear call stand among them for comparison. For part of these data: Where the call is inconclusive, the potency comes from a doubtful curve fit. A structure can be active in one record and inactive in another. The source made the active and inactive calls. Unless noted, calls come from the whole dose curve; as a rule, active = well fitted curve in the direction sought with a large enough effect in the repeat runs; inconclusive = weak or mixed curves; inactive = no such curve, though single readings can be large; an effect the other way counts as inactive or inconclusive.
# Assays:
# [1] = qHTS assay to identify small molecule antagonists of the androgen receptor (AR) signaling pathway using the MDA cell line in the presence of 0.5 nM R1881 - cell viability counter screen (AID 1259242); note: nearly all actives have a fitted effect of over 45% in size
# In short: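 Cells seeded at 3,000/well and allowed 5 hr at 37C, 0% CO2 before compound transfer and R1881 (0.5 nM final) addition; 16 hr later, live-cell protease fluorescence indicated cytotoxicity.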
# [2] = target: Androgen receptor (Homo sapiens) (UniProt P10275); assay: qHTS assay to identify small molecule antagonists of the androgen receptor (AR) signaling pathway using the MDA cell line in the presence of 0.5 nM R1881 (AID 1259243); note: nearly all actives have a fitted effect of over 50% in size
# Chain of UniProt P10275 (P10275 whole entry, looked up): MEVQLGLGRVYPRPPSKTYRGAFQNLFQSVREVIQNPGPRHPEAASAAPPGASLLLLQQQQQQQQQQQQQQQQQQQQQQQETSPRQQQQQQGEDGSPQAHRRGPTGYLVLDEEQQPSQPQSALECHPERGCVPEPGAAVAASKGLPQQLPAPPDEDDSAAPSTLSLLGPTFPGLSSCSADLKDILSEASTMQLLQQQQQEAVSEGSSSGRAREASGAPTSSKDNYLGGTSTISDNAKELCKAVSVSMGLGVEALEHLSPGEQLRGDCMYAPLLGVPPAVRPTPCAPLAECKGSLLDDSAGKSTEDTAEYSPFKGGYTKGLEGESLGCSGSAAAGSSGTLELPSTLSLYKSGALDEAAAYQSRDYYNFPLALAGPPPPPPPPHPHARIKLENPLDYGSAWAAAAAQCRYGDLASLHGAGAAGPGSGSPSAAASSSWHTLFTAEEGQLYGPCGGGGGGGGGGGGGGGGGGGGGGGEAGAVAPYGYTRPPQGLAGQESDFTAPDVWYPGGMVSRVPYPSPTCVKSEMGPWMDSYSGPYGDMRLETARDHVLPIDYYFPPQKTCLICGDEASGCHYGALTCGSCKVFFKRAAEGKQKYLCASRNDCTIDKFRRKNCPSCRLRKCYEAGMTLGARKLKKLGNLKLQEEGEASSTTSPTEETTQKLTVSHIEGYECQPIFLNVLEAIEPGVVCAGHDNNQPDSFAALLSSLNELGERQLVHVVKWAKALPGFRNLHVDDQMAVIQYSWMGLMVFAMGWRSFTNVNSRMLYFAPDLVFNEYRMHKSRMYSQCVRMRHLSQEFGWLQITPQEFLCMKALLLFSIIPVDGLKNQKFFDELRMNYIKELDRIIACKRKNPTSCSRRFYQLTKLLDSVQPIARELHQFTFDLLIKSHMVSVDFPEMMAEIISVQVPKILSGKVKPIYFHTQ
# In short: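 Luminescence from an AR/GR-responsive MMTV-luciferase construct in MDA-kb2 breast carcinoma cells, read 30 min after ONE-Glo, following 16 hr co-treatment with compounds and 0.5 nM R1881.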
# [3] = qHTS assay to identify small molecule agonists of the sonic hedgehog signaling (Shh) pathway - cell viability counter screen (AID 1259366); note: nearly all actives have a fitted effect of over 50% in size
# In short: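 NIH/3T3-derived 3T3 Gli1-Luc cells (stable Gli1-responsive firefly luciferase reporter) were seeded, rested 4 hr at 37 C/5% CO2, then exposed to compounds in DMSO for 24 hr; viability was read by CellTiter-Fluor fluorescence in the same wells.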
# [4] = qHTS assay to identify small molecule antagonists of the sonic hedgehog signaling (Shh) pathway - cell viability counter screen (AID 1259367); note: nearly all actives have a fitted effect of over 55% in size
# In short: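 Viability was read by CellTiter-Fluor fluorescence in the same wells, reagent added 23 hr into compound treatment and incubated 1 hr at 37C. The 3T3 Gli1-Luc reporter cells (2,000/well) received conditioned medium after compound and ran 24 hr.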
# [5] = target: Estrogen receptor beta (Homo sapiens) (UniProt Q92731); assay: qHTS assay to identify small molecule agonists of the estrogen receptor beta (ER-beta) signaling pathway (AID 1259377; active = well fitted activation curve with a large enough effect in the signal ratio in the repeat runs, not every such curve was filed as active; inconclusive = weak or mixed curves, or effect the other way; the % refers to the signal ratio; for activation: % is set by controls: 0 for no effect and ±100 for the full control effect); conditions: ER-beta-UAS-bla HEK293T, beta-lactamase FRET ratio, 16 h; activation: at 92.4 µM (top of the series) unless noted
# Chain of UniProt Q92731 (Q92731 whole entry, looked up): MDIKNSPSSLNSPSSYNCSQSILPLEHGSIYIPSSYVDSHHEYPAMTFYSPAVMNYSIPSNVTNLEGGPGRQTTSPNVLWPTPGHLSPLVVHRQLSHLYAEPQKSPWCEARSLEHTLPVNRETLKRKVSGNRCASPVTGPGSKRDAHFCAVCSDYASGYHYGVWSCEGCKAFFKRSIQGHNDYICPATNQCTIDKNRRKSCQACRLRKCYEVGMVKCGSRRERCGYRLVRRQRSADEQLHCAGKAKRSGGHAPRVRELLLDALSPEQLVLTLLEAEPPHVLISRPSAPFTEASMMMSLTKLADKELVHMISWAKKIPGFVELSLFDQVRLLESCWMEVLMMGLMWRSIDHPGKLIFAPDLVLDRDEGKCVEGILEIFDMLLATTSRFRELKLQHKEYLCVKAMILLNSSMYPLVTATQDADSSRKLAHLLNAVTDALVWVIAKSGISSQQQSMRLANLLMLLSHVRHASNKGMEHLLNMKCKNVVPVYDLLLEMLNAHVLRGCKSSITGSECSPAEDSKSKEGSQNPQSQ
# In short: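 ER-beta-UAS-bla HEK293T (GripTite) cells carrying a UAS-driven beta-lactamase reporter, in medium with 2% charcoal-stripped FBS, were exposed to compounds for 16 hr at 37C; LiveBLAzer B/G FRET substrate was then added and fluorescence read after 2 hours at room temperature.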
# [6] = target: Estrogen receptor beta (Homo sapiens) (UniProt Q92731); assay: qHTS assay to identify small molecule antagonists of the estrogen receptor beta (ER-beta) signaling pathway (AID 1259378; active = well fitted inhibition curve with a large enough effect in the signal ratio in the repeat runs, not every such curve was filed as active; inconclusive = weak or mixed curves, or effect the other way; inactive = no such curve, though single readings can be large or run the other way; the % refers to the signal ratio; for activity, negative = inhibition: % is set by controls: 0 for no effect and ±100 for the full control effect); conditions: ER-beta-UAS-bla HEK293T, beta-lactamase FRET ratio, 16 h; activity, negative = inhibition: at 92.4 µM (top of the series) unless noted
# In short: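 Antagonist mode: compounds added to beta-lactamase reporter HEK293T ER-beta-UAS cells stimulated with E2 (1nM final), 16 hr at 37C. LiveBLAzer B/G FRET substrate, 2 hours room temperature, fluorescence read-out.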
# [7] = qHTS assay to identify small molecule agonists of the androgen receptor (AR) signaling pathway in the presence of an antagonist - cell viability counter screen (AID 1259379); note: nearly all actives have a fitted effect of over 25% in size
# In short: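 Each compound was tested at 15 concentrations on MDA-kb2 cells in the presence of 3.0uM nilutamide. Viability was measured by CellTiter-Fluor fluorescence after a 16 hr incubation at 37C in a CO2-free atmosphere.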
# [8] = qHTS assay to identify small molecule agonists of the estrogen receptor beta (ER-beta) signaling pathway - cell viability counter screen (AID 1259380); note: nearly all actives have a fitted effect of over 30% in size
# In short: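 Compounds dissolved in DMSO were pin-transferred onto ER-beta-UAS-bla HEK293T cells that had settled 6 hr, and exposure ran 16 hr at 37C. Following the reporter read, CellTiter-Glo luminescence after 30 min at room temperature indicated cytotoxicity.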
# [9] = qHTS assay to identify small molecule antagonists of the estrogen receptor beta (ER-beta) signaling pathway - cell viability counter screen (AID 1259382); note: nearly all actives have a fitted effect of over 55% in size
# In short: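 CellTiter-Glo ATP luminescence measured after the LiveBLAzer read in the same wells; ER-beta-UAS-bla HEK293T cells, 16 hr compound treatment with 1nM 17-beta-estradiol agonist at 37C, 5% CO2.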
# [10] = qHTS assay to identify small molecule agonists of the estrogen receptor alpha (ER-alpha) signaling pathway in the presence of an antagonist - cell viability counter screen (AID 1259386);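 note: cells exposed to compounds for 22 h at 37 °C before the viability read; nearly all actives have a fitted effect of over 30% in size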
# In short: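 Using estrogen-depleted VM7Luc4E2 cells, the 15-concentration compound series was applied together with 10.0nM ICI-182,780 and incubated 22hr at 37C/5% CO2. Cell viability was then scored by CellTiter-Fluor.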
# [11] = target: Estrogen receptor (Homo sapiens) (UniProt P03372); assay: qHTS assay to identify small molecule antagonists of the estrogen receptor alpha (ER-alpha) signaling pathway using the BG1 cell line in the presence of 0.1 nM 17-beta-estradiol (AID 1259244); note: nearly all actives have a fitted effect of over 50% in size
# Chain of UniProt P03372 (P03372 whole entry, looked up): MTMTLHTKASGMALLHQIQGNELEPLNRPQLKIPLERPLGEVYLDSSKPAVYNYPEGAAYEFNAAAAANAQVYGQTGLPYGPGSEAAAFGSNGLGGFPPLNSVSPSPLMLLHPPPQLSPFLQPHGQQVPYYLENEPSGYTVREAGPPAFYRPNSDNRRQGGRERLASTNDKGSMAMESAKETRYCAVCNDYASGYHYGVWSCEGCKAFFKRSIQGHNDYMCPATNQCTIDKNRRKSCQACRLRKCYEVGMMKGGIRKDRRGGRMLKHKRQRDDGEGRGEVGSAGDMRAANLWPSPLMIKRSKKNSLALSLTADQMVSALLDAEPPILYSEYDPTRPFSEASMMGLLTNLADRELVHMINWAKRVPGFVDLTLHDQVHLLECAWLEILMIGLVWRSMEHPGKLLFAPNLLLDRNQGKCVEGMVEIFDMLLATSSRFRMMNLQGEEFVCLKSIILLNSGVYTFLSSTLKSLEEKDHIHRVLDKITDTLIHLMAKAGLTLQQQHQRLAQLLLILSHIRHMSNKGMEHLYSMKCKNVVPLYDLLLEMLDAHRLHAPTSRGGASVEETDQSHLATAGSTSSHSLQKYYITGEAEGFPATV
# In short: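 Luciferase signal from VM7Luc4E2 ERE-reporter cells, co-dosed with test compound and 0.1 nM final 17beta-estradiol for 22 h, read with ONE-Glo.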
# [12] = qHTS assay to identify small molecule antagonists of the sonic hedgehog signaling (Shh) pathway (AID 1259369; calls by dose curve; note: nearly all actives have a fitted effect of over 45% in size)
# In short: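 Read-out is luminescence from a firefly luciferase gene controlled by the Gli1 response element, in 3T3Gli1-Luc cells pre-incubated 4hr then exposed to compounds and conditioned medium for 24hr.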
# [13] = qHTS assay to identify small molecule agonists or antagonists of the thyroid stimulating hormone receptor (TSHR) signaling pathway - wild type cell line counter screen (AID 1259384; calls by dose curve; for cAMP activity change: % is set by controls: 0 for no effect and ±100 for the full control effect); conditions: HEK293 wild type, cAMP HTRF counter-screen; cAMP activity change: at 92.4 µM (top of the series), stronger effect = higher value unless noted
# In short: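 Counter screen in untransfected Hek293: compounds (15-point titration, triplicate) plus phosphodiesterase inhibitor Ro20-1724 added after 18 h plating; 30 min RT. Intracellular cAMP via competitive d2/cryptate immunoassay, 1 h incubation.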
# [14] = target: Thyrotropin receptor (Homo sapiens) (UniProt P16473); assay: qHTS assay to identify small molecule antagonists of the thyroid stimulating hormone receptor (TSHR) signaling pathway (AID 1259385; calls by dose curve; for activity change, negative = inhibition: % is set by controls: 0 for no effect and ±100 for the full control effect; for all read-outs here: nearly all actives have a fitted effect of over 20% in size); conditions: TSHR-HEK293 cAMP HTRF, TSH-stimulated antagonist mode; for Potency: activity change, negative = inhibition: at 92.4 µM (top of the series) unless noted
# Chain of UniProt P16473 (P16473 whole entry, looked up): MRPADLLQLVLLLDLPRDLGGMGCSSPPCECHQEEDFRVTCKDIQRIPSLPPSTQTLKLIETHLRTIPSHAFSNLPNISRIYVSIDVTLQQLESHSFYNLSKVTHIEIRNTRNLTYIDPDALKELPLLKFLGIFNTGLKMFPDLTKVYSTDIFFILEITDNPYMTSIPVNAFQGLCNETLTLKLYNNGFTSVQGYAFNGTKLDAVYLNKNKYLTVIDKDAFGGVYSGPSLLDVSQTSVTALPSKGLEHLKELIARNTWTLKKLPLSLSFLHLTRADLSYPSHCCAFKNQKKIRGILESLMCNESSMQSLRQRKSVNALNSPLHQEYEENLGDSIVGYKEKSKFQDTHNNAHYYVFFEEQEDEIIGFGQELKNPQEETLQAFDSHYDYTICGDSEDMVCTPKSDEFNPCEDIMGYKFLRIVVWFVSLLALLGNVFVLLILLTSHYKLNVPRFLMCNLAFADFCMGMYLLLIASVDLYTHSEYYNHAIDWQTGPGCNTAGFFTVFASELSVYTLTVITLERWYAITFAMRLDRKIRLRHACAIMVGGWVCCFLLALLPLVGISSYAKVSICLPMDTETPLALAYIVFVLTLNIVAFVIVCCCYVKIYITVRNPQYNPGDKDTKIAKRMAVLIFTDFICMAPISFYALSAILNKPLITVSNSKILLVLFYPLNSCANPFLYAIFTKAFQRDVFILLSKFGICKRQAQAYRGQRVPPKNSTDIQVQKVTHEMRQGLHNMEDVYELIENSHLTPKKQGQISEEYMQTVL
# In short: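 Antagonist mode: compound-treated TSHR-expressing HEK293 cells were stimulated with 1.5 ng/mL TSH (final) in presence of Ro20-1724 for 30 min at RT. HTRF cAMP detection after 1 h; each compound tested at 15 concentrations, triplicate.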
# [15] = qHTS assay to identify small molecule HDAC inhibitors - cell viability counter screen (AID 1259365); note: nearly all actives have a fitted effect of over 50% in size
# In short: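 Wild-type HCT-116 cells were seeded at 1,500 per well, incubated overnight at 37 C, then exposed to compounds in DMSO for 2hr. Viability was read by CellTiter-Glo luminescence after 30min at room temperature.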
# [16] = qHTS assay to identify small molecule phospholipidosis (PLD) inducers (AID 1259344; active = well fitted curve in the direction sought with a large enough effect; inconclusive = small, poorly fitted or top-dose-only effect, or another doubt; inactive = no such curve, though single readings can be large; an effect the other way counts as inactive or inconclusive)
# In short: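 Phospholipid accumulation was scored by imaging: fixed, Hoechst-counterstained HepG2 cells stained with LipidTOX Red after 24 h compound exposure at 37 C. Read-outs were pit count and pit intensity per well or per cell, with amiodarone and DMSO controls.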
# [17] = qHTS assay to identify small molecule HDAC inhibitors (AID 1259364);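 note: wild-type HCT-116 cells with endogenous class I/II HDAC activity; nearly all actives have a fitted effect of over 45% in size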
# In short: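 HCT-116 wt cells, 1,500/well, overnight attach. Compounds (DMSO) 2 h, 37 °C. HDAC-Glo I/II, 30 min RT. Luminescence.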
# Potency is the fitted concentration of half-maximal effect; tags give direction and shape of the fitted curve or compound fluorescence and quenching.
structure (smiles),measurement,setting,value
CCCCCCCC/C=C/CCCCCCCC1=NCCN1CCO,Potency,[1],"inconclusive: 68.6 µM [cytotoxic, single point]"
same,Potency,[2],"inconclusive: 68.6 µM [inhibitor, single point]"
same,Potency,[3],"inconclusive: 68.6 µM [cytotoxic, single point]"
same,Potency,[4],"inconclusive: 61.1 µM [cytotoxic, partial curve]"
same,Potency,[5],"inconclusive: 77 µM [cytotoxic, single point]"
same,Potency,[6],active: 54.5 µM
same,Potency,[7],active: 61.1 µM
same,Potency,[8],active: 27.3 µM
same,Potency,[9],active: 54.5 µM
same,Potency,[10],"inconclusive: 30.6 µM [cytotoxic, partial curve]"
O=C(c1cc(O)c(O)c(O)c1)c1ccc(O)c(O)c1O,Potency,[1],"inconclusive: 48.4 µM [cytotoxic, partial curve] and inconclusive: 61.1 µM [cytotoxic, single point]"
same,Potency,[11],"inconclusive: 68.4 µM [inhibitor, partial curve, poor fit]"
same,Potency,[3],"active: 54.3 µM and active: 54.5 µM and inconclusive: 37.6 µM [cytotoxic, partial curve]"
same,Potency,[4],"inconclusive: 54.3 µM [cytotoxic, partial curve] and active: 54.5 µM and inconclusive: 26.6 µM [cytotoxic, partial curve, poor fit]"
same,Potency,[12],"inconclusive: 30.5 µM [inhibitor, partial curve, poor fit]"
same,"activity, negative = inhibition",[6],inconclusive: -33% and inconclusive: -45.7%
same,Potency,[8],inactive
same,Potency,[13],"inconclusive: 29.8 µM [falling, single point]"
same,cAMP activity change,[13],inconclusive: -6.85% and inconclusive: -21.7%
same,"activity change, negative = inhibition",[14]; at 42.5 µM (top of the series),inconclusive: 3.31%
same,"activity change, negative = inhibition",[14]; at 92.4 µM (top of the series),inconclusive: -6.41% and inconclusive: -1.39%
same,Potency,[10],"inconclusive: 26.6 µM [cytotoxic, partial curve]"
CCCCCCCCCC[N+](C)(CCCCCCCCCC)CCC[Si](OC)(OC)OC,Potency,[1],"inconclusive: 54.5 µM [cytotoxic, partial curve]"
same,Potency,[15],"inconclusive: 48.6 µM [cytotoxic, partial curve]"
same,Potency,[3],"inconclusive: 68.6 µM [cytotoxic, single point]"
same,Potency,[4],"inconclusive: 8.63 µM [rising, partial curve]"
same,Potency,[12],"inconclusive: 2.43 µM [inhibitor, full curve, poor fit]"
same,Potency,[7],"inconclusive: 68.6 µM [cytotoxic, single point]"
same,Potency,[8],"inconclusive: 30.6 µM [cytotoxic, partial curve]"
same,Potency,[9],"inconclusive: 38.6 µM [cytotoxic, partial curve]"
CC/C(=C(\c1ccccc1)c1ccc(OCCN(C)C)cc1)c1ccccc1,Potency,[1],active: 54.5 µM [middle of 5 runs]
same,Potency,[16],active: 11.2 µM
same,Potency,[15],"inconclusive: 61.5 µM [cytotoxic, partial curve] and inconclusive: 68.5 µM [cytotoxic] and inconclusive: 61.6 µM [cytotoxic, single point]"
same,Potency,[3],"inconclusive: 33.5 µM [cytotoxic, single point]"
same,Potency,[4],"inconclusive: 33.5 µM [cytotoxic, single point]"
same,Potency,[12],"inconclusive: 12.3 µM [inhibitor, full curve, poor fit]"
CC(=O)Nc1ccc(C(=O)CCl)cc1,Potency,[1],active: 54.5 µM
same,Potency,[17],"inconclusive: 27.3 µM [inhibitor, partial curve]"
same,Potency,[3],"inconclusive: 24.5 µM [cytotoxic, full curve, poor fit] and active: 21.7 µM"
same,Potency,[4],"inconclusive: 48.6 µM [cytotoxic, partial curve]"
same,Potency,[5],inconclusive: 24.3 µM [activator]
same,Potency,[8],"inconclusive: 68.6 µM [cytotoxic, single point]"
same,Potency,[14],"inconclusive: 61.4 µM [falling, partial curve, poor fit]"
C/C=C/C(=O)Oc1c(CCCCCC(C)C)cc([N+](=O)[O-])cc1[N+](=O)[O-],Potency,[1],active: 15.4 µM
same,Potency,[11],active: 4.33 µM
same,Potency,[3],active: 61.1 µM
same,activation,[5],inconclusive: -3.41%
same,Potency,[6],"inconclusive: 68.6 µM [cytotoxic, single point]"
same,Potency,[9],active: 48.6 µM
same,Potency,[10],active: 9.69 µM
O=C(Nc1ccc(Cl)cc1)Nc1ccc(Cl)c(C(F)(F)F)c1,Potency,[1],active: 11.9 µM
same,Potency,[11],active: 9.44 µM
same,Potency,[4],"inconclusive: 21.1 µM [cytotoxic, partial curve]"
same,Potency,[12],active: 7.5 µM
same,Potency,[6],active: 7.5 µM
same,Potency,[9],active: 13.3 µM
same,Potency,[14],active: 26.6 µM

# Reference: PubChem BioAssay (Tox21)
